# The other results are listed elsewhere or left out.
# B1: CC1G-11630 (Coprinopsis cinerea), A8P462 (protein)
# chain: MTTEAKIKLKAVVYWELVFDYDNSSNTGEITQSYTVKISQTSTRSTFASEVSTTTIDTLTKNNQEVDVGASYGAISANVSASWEHSEEVNNMLEKTTQTSTEDTYTVETEETRSYTIGPGGMLSLFQKHFSGPGMHVAFDVFTTDLELAKERTEIDIDVDVEAIRFVREIRVVYTDIMSEAPGDHVREINGKNPDINYGFNGKFVWLVPEQTRKTAQALTNVEFVSQAESDDRYWDLAAGAGGSNRYLIPVYDTNNKDKIYELALWRSDSYITHDKVKAAGWSGTTGDINSGRGGTYLNLVWKTRHAY
# Columns and labels:
# Test in all cases: glycan array binding signal (z-score within array); higher = stronger binding
# Conditions in all cases: glycan notation: IUPAC condensed, linker removed
# [1] = target: Gal(b1-4)GlcNAc(b1-3)Gal(b1-4)GlcNAc(b1-3)[Gal(b1-4)GlcNAc(b1-3)Gal(b1-4)GlcNAc(b1-6)]GalNAc
# Outline: (§1)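 Columns mapping to the same glycan were averaged after glycan names were converted to IUPAC-condensed notation. The data come from 3228 arrays in the Consortium for Functional Glycomics database, limited to those with an available protein sequence. Binding is reported as a within-array Z-score averaged across arrays of one protein sequence and across linkers.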
# [2] = target: Gal(b1-4)GlcNAc(b1-3)Gal(b1-4)GlcNAc(b1-6)[Gal(b1-3)]GalNAc
# Outline: as §1
# [3] = target: Gal(b1-4)GlcNAc(b1-3)Gal(b1-4)[Fuc(a1-3)]GlcNAc(b1-3)Gal(b1-4)[Fuc(a1-3)]GlcNAc
# Outline: as §1
# [4] = target: Gal(b1-4)GlcNAc(b1-3)GalNAc
# Outline: as §1
# [5] = target: Gal(b1-4)GlcNAc(b1-3)[Fuc(a1-3)GlcNAc(b1-6)]Gal(b1-4)Glc
# Outline: as §1
# [6] = target: Gal(b1-4)GlcNAc(b1-3)[Gal(b1-4)GlcNAc(b1-6)]Gal(b1-4)GlcNAc
# Outline: as §1
# [7] = target: Gal(b1-4)GlcNAc(b1-3)[GlcNAc(b1-6)]Gal(b1-4)GlcNAc
# Outline: as §1
# [8] = target: Gal(b1-4)GlcNAc(b1-6)Gal(b1-4)GlcNAc
# Outline: as §1
# [9] = target: Gal(b1-4)GlcNAc(b1-6)GalNAc
# Outline: as §1
# [10] = target: Gal(b1-4)GlcNAc(b1-6)[Gal(b1-3)]GalNAc
# Outline: as §1
# [11] = target: Gal(b1-4)GlcNAc(b1-6)[Gal(b1-4)GlcNAc(b1-3)]GalNAc
# Outline: as §1
# [12] = target: Gal(b1-4)GlcNAc6P
# Outline: as §1
# [13] = target: Gal(b1-6)Gal
# Outline: as §1
# [14] = target: Gal3S(b1-3)GalNAc
# Outline: as §1
# [15] = target: Gal3S(b1-3)GlcNAc
# Outline: as §1
# [16] = target: Gal3S(b1-3)[Fuc(a1-4)]GlcNAc
# Outline: as §1
# [17] = target: Gal3S(b1-4)Glc
# Outline: as §1
# [18] = target: Gal3S(b1-4)Glc6S
# Outline: as §1
# [19] = target: Gal3S(b1-4)GlcNAc
# Outline: as §1
# [20] = target: Gal3S(b1-4)[Fuc(a1-3)]Glc6S
# Outline: as §1
# [21] = target: Gal3S(b1-4)[Fuc(a1-3)]GlcNAc
# Outline: as §1
# [22] = target: Gal3S(b1-4)[Fuc(a1-3)]GlcNAc6S
# Outline: as §1
# [23] = target: Gal3S4S(b1-4)GlcNAc
# Outline: as §1
# [24] = target: Gal3S6S(b1-4)GlcNAc
# Outline: as §1
# [25] = target: Gal3S6S(b1-4)GlcNAc6S
# Outline: as §1
# [26] = target: Gal4S(b1-4)GlcNAc
# Outline: as §1
# [27] = target: Gal4S6S(b1-4)GlcNAc
# Outline: as §1
# [28] = target: Gal6P(b1-4)GlcNAc
# Outline: as §1
# [29] = target: Gal6S(b1-3)GlcNAc
# Outline: as §1
# [30] = target: Gal6S(b1-3)GlcNAc6S
# Outline: as §1
# [31] = target: Gal6S(b1-4)Glc
# Outline: as §1
# [32] = target: Gal6S(b1-4)Glc6S
# Outline: as §1
# [33] = target: Gal6S(b1-4)GlcNAc
# Outline: as §1
# [34] = target: Gal6S(b1-4)GlcNAc6S
# Outline: as §1
# [35] = target: GalNAc(a1-3)Gal
# Outline: as §1
# [36] = target: GalNAc(a1-3)GalNAc
# Outline: as §1
# [37] = target: GalNAc(a1-3)GalNAc(b1-3)Gal(a1-4)Gal(b1-4)Glc
# Outline: as §1
binder,measurement,setting,value
B1,glycan array binding signal (z-score),[1],0.111
same,glycan array binding signal (z-score),[2],-0.07
same,glycan array binding signal (z-score),[3],-0.162
same,glycan array binding signal (z-score),[4],-0.41
same,glycan array binding signal (z-score),[5],-0.538
same,glycan array binding signal (z-score),[6],-0.647
same,glycan array binding signal (z-score),[7],-0.851
same,glycan array binding signal (z-score),[8],-0.475
same,glycan array binding signal (z-score),[9],0.779
same,glycan array binding signal (z-score),[10],-0.292
same,glycan array binding signal (z-score),[11],-0.119
same,glycan array binding signal (z-score),[12],0.67
same,glycan array binding signal (z-score),[13],0.71
same,glycan array binding signal (z-score),[14],0.063
same,glycan array binding signal (z-score),[15],0.098
same,glycan array binding signal (z-score),[16],-0.088
same,glycan array binding signal (z-score),[17],0.184
same,glycan array binding signal (z-score),[18],1.67
same,glycan array binding signal (z-score),[19],0.478
same,glycan array binding signal (z-score),[20],0.565
same,glycan array binding signal (z-score),[21],-0.203
same,glycan array binding signal (z-score),[22],1.25
same,glycan array binding signal (z-score),[23],3.27
same,glycan array binding signal (z-score),[24],1.38
same,glycan array binding signal (z-score),[25],2.52
same,glycan array binding signal (z-score),[26],-0.377
same,glycan array binding signal (z-score),[27],0.249
same,glycan array binding signal (z-score),[28],-0.491
same,glycan array binding signal (z-score),[29],-0.544
same,glycan array binding signal (z-score),[30],0.275
same,glycan array binding signal (z-score),[31],0.479
same,glycan array binding signal (z-score),[32],1.97
same,glycan array binding signal (z-score),[33],0.016
same,glycan array binding signal (z-score),[34],1.12
same,glycan array binding signal (z-score),[35],-0.341
same,glycan array binding signal (z-score),[36],-0.248
same,glycan array binding signal (z-score),[37],-0.544

# Source: the supplement of paper PMC8728848
